According to PubChem BioAssay AID504374 (National Center for Advancing Translational Sciences (NCATS), 2011):
About 100 (6.7%) of roughly 1,500 compounds were called active. About 7% were inconclusive and are not listed. Calls follow the shape of the dose curve; as a rule, active = well fitted inhibition curve with a large enough effect; inconclusive = small, poorly fitted or top-dose-only effect, or effect the other way; inactive = flat fitted curve, though single readings scatter. The list shows a part of the results.
% is scaled to controls: 0 for no effect and ±100 for the full control effect; potency is read from the fitted curve at half-maximal effect.
Also: nearly all actives have a fitted effect of over 60% in size.

The compounds below were run against Runt-related transcription factor 1 (Homo sapiens) + Core-binding factor subunit beta (Homo sapiens) (UniProt Q01196+Q13951) (assay: qHTS Assay for Compounds Blocking the Interaction Between CBF-beta and RUNX1 for the Treatment of Acute Myeloid Leukemia: Hit Validation). Conditions: AlphaScreen CBFb-His/RUNX1-biotin binding; series mostly up to 59.8 µM; activity, negative = inhibition: at the top concentration.
UniProt Q01196, sequence (Q01196 whole entry, looked up): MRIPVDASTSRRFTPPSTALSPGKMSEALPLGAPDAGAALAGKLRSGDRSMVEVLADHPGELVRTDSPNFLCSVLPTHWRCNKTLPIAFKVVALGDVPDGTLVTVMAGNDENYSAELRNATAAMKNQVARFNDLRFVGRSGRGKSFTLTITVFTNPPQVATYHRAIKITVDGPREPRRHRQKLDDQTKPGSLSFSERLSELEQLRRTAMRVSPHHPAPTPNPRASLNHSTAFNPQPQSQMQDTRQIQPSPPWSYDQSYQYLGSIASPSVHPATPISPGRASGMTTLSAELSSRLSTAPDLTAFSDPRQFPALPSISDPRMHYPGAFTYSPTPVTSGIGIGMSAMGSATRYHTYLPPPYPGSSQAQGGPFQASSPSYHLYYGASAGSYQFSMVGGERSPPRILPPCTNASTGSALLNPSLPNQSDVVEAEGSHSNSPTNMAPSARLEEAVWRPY
UniProt Q01196, sequence (Q13951 whole entry, looked up): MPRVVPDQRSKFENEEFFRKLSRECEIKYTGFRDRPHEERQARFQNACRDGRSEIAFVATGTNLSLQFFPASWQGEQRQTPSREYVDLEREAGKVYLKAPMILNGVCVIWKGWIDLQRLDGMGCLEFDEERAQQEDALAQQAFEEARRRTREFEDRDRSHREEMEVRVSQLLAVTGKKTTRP
In short: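 Compounds were added to a premixed CBF-beta-His/RUNX1-biotin complex (30 nM each, 20 min) for 15 min. Nickel and streptavidin AlphaScreen beads followed for 90 min at room temperature, with emission at 440 nm […].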
With `O=S(=O)(c1ccc(Cl)nc1)N1CCc2ccccc21` the “activity, negative = inhibition” value was inactive: -2.9%.
`NC(=S)N1CCCc2ccccc21` was tested, and the “activity, negative = inhibition” value was inactive: -12.9%.
With `Cc1csc2c(N3CCN(S(=O)(=O)c4ccc(Cl)cc4)CC3)ncnc12` the “activity, negative = inhibition” value was inactive: -2.17%.
`O=S(=O)(CCN1CCSCC1)c1ccc(Cl)cc1` was tested, and the “activity, negative = inhibition” value was inactive: -4.66%.
With `COc1ccc(-c2noc(-c3cccs3)n2)cc1OC` the “activity, negative = inhibition” value was inactive: -5.17%.
`COC(=O)[C@H](CC(C)C)NC(=O)NCCC1=CCCCC1` was tested, and the “activity, negative = inhibition” value was inactive: -14.1%.
In the case of `O=c1[nH]c(SCCN2CCOCC2)nc(O)c1-c1ccccc1`, the “activity, negative = inhibition” value is reported as inactive: 3.04%.
`Cc1ccc(C(=O)OCC(=O)Nc2ccc(S(N)(=O)=O)cc2)c(O)c1` was tested, and the “activity, negative = inhibition” value was inactive: 0.594%.
In the case of `N#CC(C#N)=C(N)Nc1cccc(Cl)c1`, the “activity, negative = inhibition” value is reported as inactive: -12.8%.
In the case of `COc1ccccc1NC(=S)NC1CCCCCCCCCCC1`, the “activity, negative = inhibition” value is reported as inactive: -2.75%.
In the case of `Cn1cccc1/C=C1\SC(=S)N(NC(=O)c2ccc(F)cc2)C1=O`, the “activity, negative = inhibition” value is reported as inactive: -14.4%.
In the case of `O=C(O)COc1ccccc1/C=N/NC(=O)CSc1nnc(-c2ccc(Cl)cc2)n1C1CCCCC1`, the “activity, negative = inhibition” value is reported as inactive: -7.97%.
With `CC1(C)N=C(N)N=C(N)N1c1ccc(OCCCOc2ccccc2)c(Cl)c1` the “activity, negative = inhibition” value was inactive: -10.6%.
With `COc1ccc(C(=O)/C=C/Sc2nc3ccccc3o2)cc1` the “activity, negative = inhibition” value was inactive: -2.46%.
`Cc1cc(=O)n2[nH]c(CCC(=O)O)nc2n1` was tested, and the “activity, negative = inhibition” value was inactive: 1.21%.
For `COc1cc([N+](=O)[O-])ccc1NC(=O)Oc1ccc(NC(C)=O)cc1`, the “activity, negative = inhibition” value was inactive: -5.38%.
With `COc1ccc(/C=N/NC(=O)c2cc(C3CC3)[nH]n2)cc1OC` the “activity, negative = inhibition” value was inactive: -0.324%.
With `Nc1nc(CCl)nc(N(c2ccccc2)c2ccccc2)n1` the “activity, negative = inhibition” value was inactive: -8.08%.
In the case of `Cc1cc(NC(=O)CN2CCCCC2)n(-c2ccccc2)n1`, the “activity, negative = inhibition” value is reported as inactive: 2.06%.
With `Cc1cccc(C)c1OCC(=O)N(Cc1ccc(N(C)C)cc1)C1CCS(=O)(=O)C1` (stereo not given) the “activity, negative = inhibition” value was inactive: -11.9%.
With `O=S(=O)(NCc1c(Cl)cccc1Oc1ccccc1)c1ccc(F)cc1` the “activity, negative = inhibition” value was inactive: 21.9%.
`CC(c1ccccn1)N(CCN(C)C)C(=S)Nc1cccc(F)c1` (stereo not given) was tested, and the Potency was active: 3.44 µM.
In the case of `CCOC(=O)COc1nc(C)cc(C(F)(F)F)c1C#N`, the “activity, negative = inhibition” value is reported as inactive: -6.4%.
In the case of `CC(=O)c1cc(C#N)c(SCc2ccccn2)nc1C`, the “activity, negative = inhibition” value is reported as inactive: -7.25%.
In the case of `Nc1c2ccccc2nc2ccccc12`, the “activity, negative = inhibition” value is reported as inactive: 1.31%.
`O=C(O)/C=C/c1cn(-c2ccccc2)nc1-c1ccc(-c2ccc([N+](=O)[O-])cc2)o1` was tested, and the “activity, negative = inhibition” value was inactive: -3.9%.
In the case of `N/C(CSc1ccccn1)=N\OCc1c(Cl)cccc1Cl`, the “activity, negative = inhibition” value is reported as inactive: -2.05%.
`CC(=O)N1CCCC1(C(=O)O)c1ccccc1` (stereo not given) was tested, and the “activity, negative = inhibition” value was inactive: 0.0405%.
For `C=C(C)C(=O)Nc1cccnc1Oc1ccc(F)cc1`, the “activity, negative = inhibition” value was inactive: -1.27%.
For `CC(C)COP(=O)(c1ccc(N(C)C)cc1)C(O)c1cccnc1` (stereo not given), the “activity, negative = inhibition” value was inactive: 7.21%.
With `COc1ccc(C(=O)/C=C/c2cn(CC(O)CN3CCN(C)CC3)c3ccccc23)cc1OC` (stereo not given) the “activity, negative = inhibition” value was inactive: -0.997%.
`COc1ccc(/C=N/n2nnnc2N)cc1OC` was tested, and the “activity, negative = inhibition” value was inactive: -2.88%.
For `COC(=O)c1ccc(COc2ccc3c(c2)CCC3)o1`, the “activity, negative = inhibition” value was inactive: 6.73%.
`CN1C2CCC1CC(NC(=O)c1ccc(Cl)cc1)C2` (stereo not given) was tested, and the “activity, negative = inhibition” value was inactive: -3.07%.
`CC(=O)C1C(=O)CC(c2ccc(Cl)cc2)CC1=O` (stereo not given) was tested, and the “activity, negative = inhibition” value was inactive: -0.716%.
For `CCN(CC)C(=S)SSC(=S)N(CC)CC`, the Potency was active: 0.794 µM.
`Cc1cc2nc3ccc(=[N+](C)C)cc-3sc2cc1N` was tested, and the Potency was active: 6.31 µM.
For `CNC(=S)N1N=C2c3ccccc3CCC2C1c1ccccc1Cl` (stereo not given), the “activity, negative = inhibition” value was inactive: 12.3%.
With `Cc1cc(Cl)c2cc3ccccc3cc2n1` the “activity, negative = inhibition” value was inactive: -0.977%.
In the case of `COc1ccc(OC)c(/C=N/NC(=O)CCc2c(C)n[nH]c2C)c1`, the “activity, negative = inhibition” value is reported as inactive: -9.64%.
`CC(C)CC1C2C(=O)N(c3ccccc3)C(=O)C2ON1c1ccccc1` (stereo not given) was tested, and the “activity, negative = inhibition” value was inactive: 0.251%.
`O=c1cc2c(=O)oc3cc(O)c(O)oc3c2c(O)c1O` was tested, and the Potency was active: 0.447 µM.
`NC(=S)Nc1cccc(Cl)c1` was tested, and the “activity, negative = inhibition” value was inactive: 0.17%.
With `COc1ccc(OC)c(/C=N/NC(=O)c2cnccn2)c1` the “activity, negative = inhibition” value was inactive: -4.1%.
`Cc1ccc(/C=N/n2c(-c3cccc(Cl)c3)n[nH]c2=S)o1` was tested, and the “activity, negative = inhibition” value was inactive: -12.9%.
In the case of `COc1cc(C(=O)NCC2(N3CCCCC3)CCCCC2)ccc1OCC(=O)N1CCOCC1`, the “activity, negative = inhibition” value is reported as inactive: 5.53%.
With `CNC(=O)/C(C#N)=C1\SC(Cc2ccc(F)cc2)C(=O)N1c1ccccc1C` (stereo not given) the “activity, negative = inhibition” value was inactive: -0.028%.
For `O=[N+]([O-])/C=C/c1cc2ccccc2[nH]1`, the “activity, negative = inhibition” value was inactive: -8.19%.
In the case of `Cc1ccc(C2=NN(C(=O)CCC(=O)O)C(c3cccs3)C2)cc1` (stereo not given), the “activity, negative = inhibition” value is reported as inactive: 0.0494%.
With `O=C1Nc2c(ccc(Cl)c2Cl)C(=O)C1(F)c1ccccc1` (stereo not given) the “activity, negative = inhibition” value was inactive: -21.6%.
For `Cc1ccccc1NC(=S)N(CCN(C)C)C(C)c1ccccn1` (stereo not given), the Potency was active: 4.86 µM.
For `Nc1nc(CCl)nc(Nc2ccc3ccccc3c2)n1`, the “activity, negative = inhibition” value was inactive: 3.21%.
In the case of `CC(C)(C)NC(=O)c1ccc(C(=O)NC(C)(C)C)cc1`, the “activity, negative = inhibition” value is reported as inactive: 6.07%.
`COc1ccc(NS(=O)(=O)c2ccc(Oc3c(C#N)cccc3C#N)cc2)cc1` was tested, and the “activity, negative = inhibition” value was inactive: 1.71%.
With `CCOC(=O)c1nnsc1N` the “activity, negative = inhibition” value was inactive: -0.536%.
In the case of `CC(C)CCN1NC2(CCC(C)CC2)NC1=S` (stereo not given), the “activity, negative = inhibition” value is reported as inactive: -9.63%.
`COC(=O)c1scc(C)c1NC(=O)CSc1ccc(Cl)cc1` was tested, and the “activity, negative = inhibition” value was inactive: -3.5%.
For `CCCc1cc(=O)oc2c(CN(CC)CC)c(O)c(Cl)cc12`, the “activity, negative = inhibition” value was inactive: -8.38%.
With `O=C(Nc1ccc(F)cc1)N1CCCN(c2ccc(C(F)(F)F)cn2)CC1` the “activity, negative = inhibition” value was inactive: -12.4%.
`Cc1nn2c(NCc3cccnc3)c3c(nc2c1-c1ccccc1)CCC3` was tested, and the “activity, negative = inhibition” value was inactive: 2.01%.
